The other results are listed elsewhere or left out.
Columns and labels:
Test in all cases: glycan array binding signal (z-score within array); higher = stronger binding
Settings in all cases: glycan notation: IUPAC condensed, linker removed
Gal(b1-3)GlcNAc6S = biological target: Gal(b1-3)GlcNAc6S
Method in brief: (§1)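 Arrays were curated from the Consortium for Functional Glycomics database, 3228 in total, and kept only where the protein sequence was available. Binding is expressed as a within-array Z-score. This score was averaged across arrays of the same protein sequence at different concentrations or buffers and across linkers, and negative values can be read as non-binding.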

[1] = biological target: Gal(b1-3)[Fuc(a1-4)]GlcNAc
Method in brief: as §1

[2] = biological target: Gal(b1-3)[Fuc(a1-4)]GlcNAc(b1-2)Man
Method in brief: as §1

[3] = biological target: Gal(b1-3)[Fuc(a1-4)]GlcNAc(b1-2)Man(a1-3)[Gal(b1-3)[Fuc(a1-4)]GlcNAc(b1-2)Man(a1-6)]Man(b1-4)GlcNAc(b1-4)[Fuc(a1-6)]GlcNAc
Method in brief: as §1

[4] = biological target: Gal(b1-3)[Fuc(a1-4)]GlcNAc(b1-3)Gal(b1-3)[Fuc(a1-4)]GlcNAc
Method in brief: as §1

[5] = biological target: Gal(b1-3)[Fuc(a1-4)]GlcNAc(b1-3)Gal(b1-4)GlcNAc
Method in brief: as §1

[6] = biological target: Gal(b1-3)[Fuc(a1-4)]GlcNAc(b1-3)Gal(b1-4)[Fuc(a1-3)]GlcNAc
Method in brief: as §1

[7] = biological target: Gal(b1-3)[Fuc(a1-4)]GlcNAc(b1-6)GalNAc
Method in brief: as §1

[8] = biological target: Gal(b1-3)[GlcNAc(b1-6)]GalNAc
Method in brief: as §1

[9] = biological target: Gal(b1-3)[Neu5Ac(a2-6)]GalNAc
Method in brief: as §1

[10] = biological target: Gal(b1-3)[Neu5Ac(a2-6)]GlcNAc(b1-4)Gal(b1-4)Glc
Method in brief: as §1

[11] = biological target: Gal(b1-3)[Neu5Ac(b2-6)]GalNAc
Method in brief: as §1

Gal(b1-4)Gal = biological target: Gal(b1-4)Gal
Method in brief: as §1

[12] = biological target: Gal(b1-4)GalNAc(a1-3)[Fuc(a1-2)]Gal(b1-4)GlcNAc
Method in brief: as §1

[13] = biological target: Gal(b1-4)GalNAc(b1-3)[Fuc(a1-2)]Gal(b1-4)GlcNAc
Method in brief: as §1

Gal(b1-4)Glc = biological target: Gal(b1-4)Glc
Method in brief: as §1

Gal(b1-4)Glc6S = biological target: Gal(b1-4)Glc6S
Method in brief: as §1

Gal(b1-4)GlcNAc = biological target: Gal(b1-4)GlcNAc
Method in brief: as §1

[14] = biological target: Gal(b1-4)GlcNAc(a1-6)Gal(b1-4)GlcNAc
Method in brief: as §1

Gal(b1-4)GlcNAc(b1-2)Man = biological target: Gal(b1-4)GlcNAc(b1-2)Man
Method in brief: as §1

[15] = biological target: Gal(b1-4)GlcNAc(b1-2)Man(a1-3)Man(b1-4)GlcNAc(b1-4)GlcNAc
Method in brief: as §1

[16] = biological target: Gal(b1-4)GlcNAc(b1-2)Man(a1-3)[Gal(b1-4)GlcNAc(b1-2)Man(a1-6)]Man(b1-4)GlcNAc(b1-4)GlcNAc
Method in brief: as §1

[17] = biological target: Gal(b1-4)GlcNAc(b1-2)Man(a1-3)[Gal(b1-4)GlcNAc(b1-2)Man(a1-6)]Man(b1-4)GlcNAc(b1-4)[Fuc(a1-6)]GlcNAc
Method in brief: as §1

[18] = biological target: Gal(b1-4)GlcNAc(b1-2)Man(a1-3)[Gal(b1-4)GlcNAc(b1-2)Man(a1-6)][Gal(b1-4)GlcNAc(b1-4)]Man(b1-4)GlcNAc(b1-4)[Fuc(a1-6)]GlcNAc
Method in brief: as §1

[19] = biological target: Gal(b1-4)GlcNAc(b1-2)Man(a1-3)[Gal(b1-4)GlcNAc(b1-2)Man(a1-6)][GlcNAc(b1-4)]Man(b1-4)GlcNAc(b1-4)[Fuc(a1-6)]GlcNAc
Method in brief: as §1

[20] = biological target: Gal(b1-4)GlcNAc(b1-2)Man(a1-3)[GlcNAc(b1-2)Man(a1-6)]Man(b1-4)GlcNAc(b1-4)GlcNAc
Method in brief: as §1

[21] = biological target: Gal(b1-4)GlcNAc(b1-2)Man(a1-3)[GlcNAc(b1-4)][Gal(b1-4)GlcNAc(b1-2)Man(a1-6)]Man(b1-4)GlcNAc(b1-4)GlcNAc
Method in brief: as §1

[22] = biological target: Gal(b1-4)GlcNAc(b1-2)Man(a1-3)[Man(a1-6)]Man(b1-4)GlcNAc(b1-4)GlcNAc
Method in brief: as §1

[23] = biological target: Gal(b1-4)GlcNAc(b1-2)Man(a1-6)Man(b1-4)GlcNAc(b1-4)GlcNAc
Method in brief: as §1

[24] = biological target: Gal(b1-4)GlcNAc(b1-2)Man(a1-6)[GlcNAc(b1-2)Man(a1-3)]Man(b1-4)GlcNAc(b1-4)GlcNAc
Method in brief: as §1

[25] = biological target: Gal(b1-4)GlcNAc(b1-2)Man(a1-6)[Man(a1-3)]Man(b1-4)GlcNAc(b1-4)GlcNAc
Method in brief: as §1

[26] = biological target: Gal(b1-4)GlcNAc(b1-2)[Gal(b1-4)GlcNAc(b1-4)]Man(a1-3)[Gal(b1-4)GlcNAc(b1-2)Man(a1-6)]Man(b1-4)GlcNAc(b1-4)GlcNAc
Method in brief: as §1

[27] = biological target: Gal(b1-4)GlcNAc(b1-2)[Gal(b1-4)GlcNAc(b1-4)]Man(a1-3)[Gal(b1-4)GlcNAc(b1-2)[Gal(b1-4)GlcNAc(b1-6)]Man(a1-6)]Man(b1-4)GlcNAc(b1-4)GlcNAc
Method in brief: as §1

[28] = biological target: Gal(b1-4)GlcNAc(b1-2)[Gal(b1-4)GlcNAc(b1-4)]Man(a1-3)[GlcNAc(b1-4)][Gal(b1-4)GlcNAc(b1-2)Man(a1-6)]Man(b1-4)GlcNAc(b1-4)GlcNAc
Method in brief: as §1

[29] = biological target: Gal(b1-4)GlcNAc(b1-2)[Gal(b1-4)GlcNAc(b1-4)]Man(a1-3)[GlcNAc(b1-4)][Gal(b1-4)GlcNAc(b1-2)[Gal(b1-4)GlcNAc(b1-6)]Man(a1-6)]Man(b1-4)GlcNAc(b1-4)GlcNAc
Method in brief: as §1

[30] = biological target: Gal(b1-4)GlcNAc(b1-2)[Gal(b1-4)GlcNAc(b1-6)]Man(a1-6)[Gal(b1-4)GlcNAc(b1-2)Man(a1-3)]Man(b1-4)GlcNAc(b1-4)GlcNAc
Method in brief: as §1

[31] = biological target: Gal(b1-4)GlcNAc(b1-2)[Gal(b1-4)GlcNAc(b1-6)]Man(a1-6)[Gal(b1-4)GlcNAc(b1-2)Man(a1-3)]Man(b1-4)GlcNAc(b1-4)[Fuc(a1-6)]GlcNAc
Method in brief: as §1

[32] = biological target: Gal(b1-4)GlcNAc(b1-2)[Gal(b1-4)GlcNAc(b1-6)]Man(a1-6)[GlcNAc(b1-4)][Gal(b1-4)GlcNAc(b1-2)Man(a1-3)]Man(b1-4)GlcNAc(b1-4)GlcNAc
Method in brief: as §1

[33] = biological target: Gal(b1-4)GlcNAc(b1-2)[Gal(b1-4)GlcNAc(b1-6)]Man(a1-6)[GlcNAc(b1-4)][Gal(b1-4)GlcNAc(b1-2)[Gal(b1-4)GlcNAc(b1-4)]Man(a1-3)]Man(b1-4)GlcNAc(b1-4)[Fuc(a1-6)]GlcNAc
Method in brief: as §1

[34] = biological target: Gal(b1-4)GlcNAc(b1-3)Gal(b1-3)GalNAc
Method in brief: as §1

[35] = biological target: Gal(b1-4)GlcNAc(b1-3)Gal(b1-3)GlcNAc
Method in brief: as §1

[36] = biological target: Gal(b1-4)GlcNAc(b1-3)Gal(b1-4)Glc
Method in brief: as §1

[37] = biological target: Gal(b1-4)GlcNAc(b1-3)Gal(b1-4)GlcNAc
Method in brief: as §1

[38] = biological target: Gal(b1-4)GlcNAc(b1-3)Gal(b1-4)GlcNAc(b1-2)Man(a1-3)[Gal(b1-4)GlcNAc(b1-3)Gal(b1-4)GlcNAc(b1-2)Man(a1-6)]Man(b1-4)GlcNAc(b1-4)GlcNAc
Method in brief: as §1

[39] = biological target: Gal(b1-4)GlcNAc(b1-3)Gal(b1-4)GlcNAc(b1-2)Man(a1-3)[Gal(b1-4)GlcNAc(b1-3)Gal(b1-4)GlcNAc(b1-2)Man(a1-6)]Man(b1-4)GlcNAc(b1-4)[Fuc(a1-6)]GlcNAc
Method in brief: as §1

B1: CBM13 2a (Mycobacterium tuberculosum), P64849 (protein)
chain: DGPVQLKSRLGDVCLDAPSGSWFSPLVINPCNGTDFQRWNLTDDRQVESVAFPGECVNIGNALWARLQPCVNWISQHWTVQPDGLVKSDLDACLTVLGGPDPGTWVSTRWCDPNAPDQQWDSVPLEHHHHHH
glycan array binding signal (z-score) (Gal(b1-3)GlcNAc6S): -0.059 | glycan array binding signal (z-score) [1]: -0.163 | glycan array binding signal (z-score) [2]: 0.42 | glycan array binding signal (z-score) [3]: 0.154 | glycan array binding signal (z-score) [4]: -0.136 | glycan array binding signal (z-score) [5]: -0.309 | glycan array binding signal (z-score) [6]: -0.184 | glycan array binding signal (z-score) [7]: -0.141 | glycan array binding signal (z-score) [8]: -0.225 | glycan array binding signal (z-score) [9]: -0.099 | glycan array binding signal (z-score) [10]: -0.184 | glycan array binding signal (z-score) [11]: -0.216 | glycan array binding signal (z-score) (Gal(b1-4)Gal): -0.172 | glycan array binding signal (z-score) [12]: -0.351 | glycan array binding signal (z-score) [13]: -0.335 | glycan array binding signal (z-score) (Gal(b1-4)Glc): -0.146 | glycan array binding signal (z-score) (Gal(b1-4)Glc6S): -0.217 | glycan array binding signal (z-score) (Gal(b1-4)GlcNAc): -0.286 | glycan array binding signal (z-score) [14]: -0.249 | glycan array binding signal (z-score) (Gal(b1-4)GlcNAc(b1-2)Man): -0.147 | glycan array binding signal (z-score) [15]: -0.247 | glycan array binding signal (z-score) [16]: -0.247 | glycan array binding signal (z-score) [17]: 0.207 | glycan array binding signal (z-score) [18]: -0.386 | glycan array binding signal (z-score) [19]: -0.294 | glycan array binding signal (z-score) [20]: -0.22 | glycan array binding signal (z-score) [21]: -0.18 | glycan array binding signal (z-score) [22]: -0.271 | glycan array binding signal (z-score) [23]: -0.216 | glycan array binding signal (z-score) [24]: -0.286 | glycan array binding signal (z-score) [25]: -0.262 | glycan array binding signal (z-score) [26]: -0.249 | glycan array binding signal (z-score) [27]: -0.26 | glycan array binding signal (z-score) [28]: -0.229 | glycan array binding signal (z-score) [29]: -0.194 | glycan array binding signal (z-score) [30]: 0.02 | glycan array binding signal (z-score) [31]: -0.203 | glycan array binding signal (z-score) [32]: -0.182 | glycan array binding signal (z-score) [33]: -0.113 | glycan array binding signal (z-score) [34]: -0.207 | glycan array binding signal (z-score) [35]: -0.187 | glycan array binding signal (z-score) [36]: -0.2 | glycan array binding signal (z-score) [37]: -0.072 | glycan array binding signal (z-score) [38]: 3.82 | glycan array binding signal (z-score) [39]: 0.067
